Experimental data from the supplement of paper PMC10126150.
Values marked as one replicate rest on one cluster of the flow cell; about a third of the high ones do not repeat.

Each sequence was assayed on ATP (assay: switch fluorescence ratio, 500 uM ATP over buffer (Cy3 cluster intensity, sum of 5 cycles each) (fold (ratio)); higher = stronger signal-on switching upon ATP binding; sequences stand for … in TCGTCGGCAGCGTCAGATGTGTATAAGAGACAGTTTTTTTTTTTTTTTTTTTTTTTTT…TC). Conditions: aptamer strand: ATP DNA aptamer (quencher-CACCTGGGGGAGTATTGCGGAGGAAGG + anchor), 100 nM annealed; ATP concentration: 500 uM; one replicate.
Method in brief: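 For every switch-domain sequence, the fluorescence ratio is the mean of per-cluster values, each being summed target-cycle Cy3 intensity over summed buffer-cycle Cy3 intensity. Clusters outside 100-1000 RFU were excluded. On a modified Illumina MiSeq flow-cell, the Cy3-labelled switching-strand clusters were annealed to 100 nM quencher-labelled ATP aptamer, imaged in selection buffer and then after 15 min with 500 uM ATP at 22 °C. Five such cycles were run, with NaOH stripping and re-annealing between them.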
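Note: ATP exposure 15 min at 22 °C before imaging.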

Sequence | switch fluorescence ratio
TAGCGCATTG | 1.09
TAGCGGAAAG | 0.977
TAGCGGCAAA | 0.998
TAGCGGCATC | 0.991
TAGCGTTAA | 0.991
TAGCGTTGCT | 0.967
TAGCTCAAGC | 1.05
TAGCTCATGC | 1
TAGCTCTT | 1.05
TAGCTGAGCC | 1.02
TAGCTGAGTA | 0.95
TAGCTTAATC | 1.07
TAGCTTACTC | 2.96
TAGCTTAT | 1
TAGCTTGAAT | 0.985
TAGGAAACAG | 1.02
TAGGAATGAC | 1.02
TAGGAATGCT | 1.01
TAGGACCAGG | 1.03
TAGGACCCAG | 1.01
TAGGACTCTG | 1.13
TAGGAGAGTG | 0.993
TAGGAGCACG | 1.16
TAGGAGGGCG | 1.03
TAGGAGTAG | 0.948
TAGGATAGT | 0.97

Sequence | switch fluorescence ratio
TAGGATCAAG | 1
TAGGATCGGG | 0.994
TAGGCAAAT | 0.989
TAGGCAAATA | 1.59
TAGGCAGCTA | 0.979
TAGGCCGCTT | 0.979
TAGGCGGATT | 1.03
TAGGCGGGCT | 0.958
TAGGCTGATC | 0.994
TAGGCTGGCC | 0.965
TAGGGAGCGA | 1
TAGGGCTTTC | 1.01
TAGGGGCAAG | 1.03
TAGGGGGAGG | 0.977
TAGGGGGCCT | 1.06
TAGGGGGGG | 1.04
TAGGGTAGCA | 1
TAGGGTCGTA | 1
TAGGGTCTAT | 0.982
TAGGGTCTGC | 1.03
TAGGGTTCGA | 0.997
TAGGTAAGTC | 1.03
TAGGTAGCCG | 1.14
TAGGTCTCAA | 0.969
TAGGTGGCAG | 1.02
TAGGTGTCAG | 1.04

Sequence | switch fluorescence ratio
TAGGTTTTAT | 1.01
TAGTACCCGA | 0.967
TAGTATCATC | 0.965
TAGTCAAACG | 1.03
TAGTCACATA | 1.02
TAGTCAGTT | 0.991
TAGTCCGATT | 1.12
TAGTCCTAAT | 0.986
TAGTCCTGAT | 1.02
TAGTCCTTTA | 1.05
TAGTCGAAGT | 0.963
TAGTCGCAA | 2.43
TAGTCGCTT | 1.03
TAGTCTTTGA | 0.97
TAGTGAGATT | 1.05
TAGTGCAAC | 1.01
TAGTGGAAGT | 0.96
TAGTGTACAA | 1.05
TAGTGTACCA | 1.11
TAGTTAACGT | 1.03
TAGTTATAGA | 0.959
TAGTTCAATT | 0.941
TAGTTGCTAT | 1
TAGTTTAA | 0.966
TAGTTTAACT | 0.968
TAGTTTACT | 0.985

Sequence | switch fluorescence ratio
TAGTTTCTCT | 0.989
TATAAAGGCA | 0.996
TATAACCTCA | 1.05
TATAACGATG | 1.04
TATAATCAGC | 0.961
TATAATCTAC | 1.01
TATAATGAG | 1.02
TATAATTTGT | 1
TATACCACTC | 1.06
TATACCCTCT | 0.988
TATACCGCGT | 1.22
TATACCTTTA | 1.07
TATACGTCGT | 1.01
TATACTGAGC | 1.01
TATAGCGCGG | 1.01
TATAGGTACT | 1.05
TATAGGTCAC | 1.02
TATAGTCATC | 1
TATAGTCTAA | 0.994
TATATAATGT | 1.01
TATATAGTGA | 0.967
TATATAGTTT | 1.02
TATATATGGT | 1.02
TATATCAAG | 1.03
TATATCAGTG | 0.996
TATATCTGG | 0.964

Sequence | switch fluorescence ratio
TATATGAAGG | 1.04
TATATGATGT | 1
TATATGCATA | 0.986
TATATGTCGC | 0.974
TATATTCAAT | 1.02
TATCAAAGTT | 0.975
TATCAACAGG | 1.01
TATCAACATC | 1.03
TATCAATAGA | 0.997
TATCACGTGG | 1.03
TATCAGCCTC | 1.03
TATCAGGATC | 1.05
TATCATCGAC | 1.04
TATCATGTCT | 0.965
TATCATTTAC | 1.02
TATCCATTCT | 1
TATCCCCGA | 0.994
TATCCCGATA | 1
TATCCCGATG | 1.01
TATCCCTCTG | 1.01
TATCCGGCGG | 1.01
TATCCTAGGT | 1.02
TATCCTCACT | 1.04
TATCCTCTAT | 1.2
TATCGATCTT | 0.983
TATCGGAATC | 1.34

Sequence | switch fluorescence ratio
TATCGTGAGA | 0.996
TATCGTTGAG | 1.03
TATCTAGTAA | 1.04
TATCTCAAGC | 1.02
TATCTCCGTC | 1.23
TATCTCTAAG | 0.993
TATCTGTGCG | 1.01
TATCTTCGTG | 0.984
TATCTTGACG | 1
TATCTTGTTA | 0.999
TATCTTTTGC | 1.03
TATGAAGAAT | 1.02
TATGAAGAGC | 0.996
TATGAAGAT | 1.04
TATGAAGGTA | 0.942
TATGACGGTC | 0.903
TATGACTGG | 1.03
TATGAGCTTG | 0.934
TATGAGGAGA | 1.02
TATGATCATG | 0.988
TATGCAAACT | 1.05
TATGCACAGT | 1.05
TATGCATCGG | 0.955
TATGCGACTA | 1
TATGCGCAA | 4.29
TATGCGCGGA | 1.02

Sequence | switch fluorescence ratio
TATGCGGGTG | 0.972
TATGCTCATT | 0.999
TATGGAGTCT | 1.02
TATGGATCCC | 0.973
TATGGCAAAG | 1.02
TATGGCAGAT | 1.05
TATGGCGATA | 0.97
TATGGGATGC | 0.976
TATGGGCGTG | 1
TATGGGCTT | 0.998
TATGGGGAT | 0.998
TATGGGGCGA | 1.01
TATGGGGTAA | 0.977
TATGGTAAGA | 0.995
TATGGTAGAT | 0.984
TATGGTATTT | 0.947
TATGGTCCGG | 0.991
TATGTAAAAA | 1.04
TATGTAGTTC | 0.964
TATGTATACT | 0.959
TATGTCCTCT | 1.03
TATGTGAAGA | 1.02
TATGTGGTTC | 0.991
TATGTGTCTG | 0.955
TATGTTCCAC | 0.977
TATTACCAAC | 1.13

Sequence | switch fluorescence ratio
TATTACGGCT | 1.15
TATTACGTAA | 1.07
TATTAGACCC | 1.06
TATTAGATTG | 1
TATTAGTCGC | 0.995
TATTAGTTGA | 0.995
TATTAGTTTA | 1.01
TATTATTTAA | 1.03
TATTCGCA | 1.27
TATTCGGTAA | 0.963
TATTCGTATA | 1.19
TATTCGTTTA | 1
TATTCTATTG | 0.959
TATTCTCTT | 1.01
TATTCTTGTA | 0.972
TATTGAGAT | 0.974
TATTGGATCA | 0.975
TATTGGCGAC | 0.972
TATTGGCGGC | 0.968
